# Among all 310,000 compounds or so, about 2,200 (0.71%) showed an effect of 50% or more. The effect is printed as a negative number. This is one part of the list.
# Target: human ether-à-go-go-related gene (hERG) potassium channel (human, UniProt Q12809)
# Test: primary screen, population patch clamp on CHO cells stably expressing hERG
# Sequence of human ether-à-go-go-related gene (hERG) potassium channel (Q12809 whole entry, looked up): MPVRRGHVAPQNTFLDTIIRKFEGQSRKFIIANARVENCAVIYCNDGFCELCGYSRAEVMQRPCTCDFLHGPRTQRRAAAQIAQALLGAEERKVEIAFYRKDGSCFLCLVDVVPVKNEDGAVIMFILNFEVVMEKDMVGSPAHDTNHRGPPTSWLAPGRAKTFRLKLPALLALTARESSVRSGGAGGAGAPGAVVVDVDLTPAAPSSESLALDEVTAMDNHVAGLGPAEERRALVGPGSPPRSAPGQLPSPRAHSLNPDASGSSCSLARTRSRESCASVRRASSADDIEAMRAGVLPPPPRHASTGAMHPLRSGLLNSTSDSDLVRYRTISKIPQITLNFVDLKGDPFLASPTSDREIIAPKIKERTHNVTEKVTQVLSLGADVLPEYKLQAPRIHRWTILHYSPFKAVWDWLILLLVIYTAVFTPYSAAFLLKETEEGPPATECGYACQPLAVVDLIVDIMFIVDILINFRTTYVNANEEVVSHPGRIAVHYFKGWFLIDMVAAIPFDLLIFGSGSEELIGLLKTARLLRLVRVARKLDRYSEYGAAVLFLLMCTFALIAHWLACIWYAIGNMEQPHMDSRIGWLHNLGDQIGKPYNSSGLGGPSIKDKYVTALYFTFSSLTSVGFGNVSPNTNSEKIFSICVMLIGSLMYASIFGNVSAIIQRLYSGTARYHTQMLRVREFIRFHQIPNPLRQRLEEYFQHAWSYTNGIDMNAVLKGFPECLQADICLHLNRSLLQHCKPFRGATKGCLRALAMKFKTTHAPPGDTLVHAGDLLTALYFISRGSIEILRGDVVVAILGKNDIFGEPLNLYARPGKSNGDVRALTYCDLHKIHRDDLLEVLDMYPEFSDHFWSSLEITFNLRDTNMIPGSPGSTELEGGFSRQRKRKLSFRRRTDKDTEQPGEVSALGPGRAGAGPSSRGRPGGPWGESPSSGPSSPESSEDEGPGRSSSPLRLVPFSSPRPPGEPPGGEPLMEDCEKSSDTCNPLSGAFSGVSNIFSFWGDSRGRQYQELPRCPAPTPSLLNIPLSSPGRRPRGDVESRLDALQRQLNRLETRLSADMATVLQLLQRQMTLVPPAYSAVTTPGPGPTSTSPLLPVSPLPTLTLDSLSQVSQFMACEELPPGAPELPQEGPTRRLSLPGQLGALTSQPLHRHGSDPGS
row,Structure (SMILES),"hERG current change (%, negative = inhibition) at 1uM [%]"
1,CCOc1ccc(OCC(=O)OCn2c(SC)nnc(C)c2=O)cc1,19.2
2,COc1ccc(NC(=O)c2ccc3c(c2)C(=O)N(CC2CCCO2)C3=O)cc1 (stereo not shown),11.6
3,Cc1cccc(-c2c3c(=O)n(C)c(=O)n(C)c3c3cccnn23)c1,-6.6
4,CC(NC(=O)C(=O)NN=C1CCCCCC1)c1ccccc1 (stereo not shown),7.6
5,Cc1ccc(C2=NC3(CCCCCC3)NC2=S)cc1,-0.801
6,COc1ccc(-c2ccc(OC)c([C@H]3[C@@H]4C=CCC[C@@]4(C)C(=O)N3Cc3ccccc3)c2)cc1OC,12.7
7,Fc1ccc(F)c(C2=NNC(=Nc3ccccc3F)SC2)c1,31.5
8,COc1ccc2oc(C(F)(F)C(F)(F)F)cc(=O)c2c1,14.3
9,CN(C)/C=C1\Oc2ccc3ccccc3c2C1=O,12.4
10,CCOC(=O)C1CCN(c2c(NCc3ccc(C(=O)N(C)Cc4ccccc4)cc3)c(=O)c2=O)CC1,12.4
11,COC(=O)C(C)n1cnc2c(cnn2-c2ccc(Cl)cc2)c1=O (stereo not shown),-9.92
12,NS(=O)(=O)c1ccc(NC(=O)N2c3ccccc3Sc3ccccc32)cc1,11.2
13,CCN(CC(=O)Nc1ccc(NC(C)=O)cc1)C(=O)CCCc1c[nH]c2ccccc12,11.5
14,COc1ccc(CNC(=O)C2C3C=CC4(CN(Cc5cccnc5)C(=O)C24)O3)cc1 (stereo not shown),4.2
15,O=C(NCC(c1cccnc1)N1CCN(c2ccccc2)CC1)C1CCCCC1 (stereo not shown),-0.22
16,O=C(NCCN1CCCC1=O)C1CCC(=O)N(CCc2cccc(F)c2)C1 (stereo not shown),11.8
17,O=C1CC(c2ccccc2)CC(O)=C1C=Nc1ccccc1O (stereo not shown),12.6
18,COc1ccc(NC(=S)NCCCN2CCCC2=O)c(OC)c1,11.6
19,Cc1cnc(NC(=O)Nc2ccccc2)c(C)n1,6.05
20,O=C(CCOc1ccccc1)Nc1nnc(-c2ccc3c(c2)OCCO3)o1,16.1
21,NC(=O)c1cccc(CS(=O)(=O)c2ccc(Cl)cc2)c1,8.96
22,Cc1nonc1C1CCCN1Cc1cn[nH]c1-c1ccc2c(c1)OCO2 (stereo not shown),-7.9

row,Structure (SMILES),"hERG current change (%, negative = inhibition) at 1uM [%]"
1,COc1ccc(S(=O)(=O)N2CCC(C(=O)NCc3ccccc3)CC2)cc1OC,13.7
2,CCCN(Cc1cc2cc(C)ccc2[nH]c1=O)C(=O)c1ccccn1,7.13
3,C/C(=N\NC(=O)COc1cccc(Br)c1)c1ccc2c(c1)OCCO2,12.5
4,C=CCNc1ncnc2c1cnn2-c1ccc(OC)cc1,18.8
5,O=C(Nc1cccc(Cl)c1N1CCOCC1)c1cccnc1,-12.7
6,C/C(=N\NC(=O)c1nc2ccccn2c1C)c1cccc([N+](=O)[O-])c1,-5.4
7,CC(C)(C)c1ccc(-n2ncc3c2CCCC3NC(=O)C2(C(N)=O)CC2)cc1 (stereo not shown),8.44
8,C=CCNC(=O)C(=O)NCC(c1ccc2c(c1)OCO2)N1CCN(c2ccc(F)cc2)CC1 (stereo not shown),5.04
9,COc1cccc(CN2CCN(CCCc3ccccc3)C(CCO)C2)c1O (stereo not shown),-41.8
10,Cc1ccc2nc(C3CCN(CC(=O)Nc4ccc5c(c4)OCCO5)CC3)[nH]c2c1,-18.6
11,O=[N+]([O-])c1cccc(S(=O)(=O)NC2CC3CCC2C3)c1 (stereo not shown),12.8
12,Cc1ccc(NC(=O)Cc2noc3ccccc23)c(C)c1,10.6
13,O=S(Cc1cc(Sc2ccccc2)nc(-c2ccccc2)n1)c1ccccc1 (stereo not shown),7.66
14,CCCCn1c(O)c(C(=O)/C=C/c2ccc3c(c2)OCO3)c(=O)[nH]c1=O,11.9
15,O=C(Cc1c(O)c2ccccc2[nH]c1=O)NC1CCCCCC1,14.5
16,Cc1ccc(NS(=O)(=O)c2ccc(NC(=O)c3ccc(Br)o3)cc2)c(C)c1,15.2
17,CCCCCCn1c(SCCC)nc2c1c(=O)[nH]c(=O)n2C,9.91
18,O=C(CN1CCCC1)Nc1ccc(F)cc1,16.6
19,COc1ccc(CN2CCC(CO)(CCOc3ccccc3)CC2)c(OC)c1C,-81.6
20,Br.CCn1c(=N)n(CC(=O)c2ccco2)c2ccccc21,9.28
21,NC(N)=O,14.9
22,O=C(OCc1ccc2c(c1)OCO2)c1cccc(S(=O)(=O)N2CCCCC2)c1,12

row,Structure (SMILES),"hERG current change (%, negative = inhibition) at 1uM [%]"
1,Cc1nc(SCn2nnc3ccccc3c2=O)nc(C)c1C,-2.99
2,CC(C)[C@H](NC(=O)c1ccccc1Br)C(=O)OCc1nc2ccsc2c(=O)[nH]1,1.28
3,O=C(Cn1ccc(C(F)(F)F)n1)NNC(=O)c1ccco1,9.22
4,COc1cc(-c2nnc(NC(=O)CCS(=O)(=O)c3ccc(F)cc3)o2)cc(OC)c1OC,9.06
5,CCn1c(C)nc2c(=O)oc3ccccc3c21,3.07
6,Cc1ccc(C)c(NC(=O)COC(=O)CNC(=O)c2ccccc2Cl)c1,9.98
7,COc1ccc(CNC(=O)CCn2c(=O)oc3ccccc32)c(OC)c1,8.51
8,COc1ccc(Sc2nnc(-c3ccccc3)cc2C#N)cc1,14.6
9,Cc1cc(C)cc(Nc2ncc3c(n2)CC(c2ccco2)CC3=O)c1 (stereo not shown),4.76
10,C(=C\c1nc2ccccc2[nH]1)/c1ccccc1,-4.37
11,COc1ccccc1/C=N/NC(=O)c1ccc(C)nc1,11.9
12,CC1(C)CC(=O)C2=C(C1)Nc1ccccc1NC2c1cccs1 (stereo not shown),12.9
13,C=CCn1c(SCC(=O)Nc2ccccc2C)nc(O)cc1=O,6.15
14,Cc1ccc(NC(=O)c2cccc(S(=O)(=O)N3CCN(c4ccccc4)CC3)c2)nc1,-2.21
15,O=C(NCCc1ccc(O)c(O)c1)C1COc2ccccc2O1 (stereo not shown),13.3
16,COc1ccc([C@H](OC)[C@@]2(Cc3ccc(O)cc3)N=C(N)N(C)C2=O)cc1,10.7
17,C=CCc1cccc(C=Nc2ccc(Br)cc2)c1O,2.49
18,COc1cccc(C(=O)N(Cc2nc(-c3cccc(C)c3)no2)C(C)C)c1OC,13.6
19,COc1ccccc1NC(=O)C1=C(C)NC2=C(C(=O)CC(c3ccc(OC)c(OC)c3)C2)C1c1coc2ccccc2c1=O (stereo not shown),4.43
20,Cc1nnc(SCC(=O)Nc2ccc3c(c2)COC3=O)n1-c1ccccc1,5.8
21,Cc1ccc(Oc2ccccc2NC(=O)CN2C(=O)NC3(CCCC3)C2=O)cc1,10.3
22,COc1ccc(Br)cc1CN1CCN(C(=O)c2ccc(OC)c(OC)c2)CC1.O=C(O)C(=O)O,-4.77

row,Structure (SMILES),"hERG current change (%, negative = inhibition) at 1uM [%]"
1,O=C(NCCc1ccc(Cl)cc1)c1n[nH]c2ccccc12,12.2
2,Brc1ccc(OCCCCCN2CCOCC2)cc1.O=C(O)C(=O)O,-18.3
3,COc1ccc(-n2ccnc2SCC(=O)NCc2ccc3c(c2)OCO3)cc1,2.14
4,COc1ccccc1OCC(=O)NC1CCCc2ccccc21 (stereo not shown),13.2
5,CNNC(=S)Nc1ccc(Cl)cc1,-1.94
6,CC(C)(C)NS(=O)(=O)c1ccc(NC(=O)c2cc(-c3ccccc3)nc3ccccc23)cc1,-11.2
7,CCN(CC)S(=O)(=O)c1ccc(N2CCOCC2)c(NC(=O)c2cccc3c(=O)c(C)c(-c4ccccc4)oc23)c1,1.3
8,Cc1c(C(=O)NCCC2=CCCCC2)cccc1[N+](=O)[O-],11.3
9,Cc1ccc2c(c1)C(c1ccccc1)N(C(=O)c1ccccc1)CC(=O)N2 (stereo not shown),8.26
10,CN(C)S(=O)(=O)c1ccc(N2CCCC2)c(C(=O)Nc2ccc(F)cc2F)c1,-21.8
11,CN(CC(=O)NCC1CCCCC1)CC(=O)Nc1ccccc1Br,-8.15
12,O=C(Nc1c2c(nn1-c1cccc(Cl)c1)CS(=O)(=O)C2)c1cccs1,5.14
13,NC(=O)c1ccc(N2CCN(c3ccccc3O)CC2)c([N+](=O)[O-])c1,2.22
14,CN(C)C(CNC(=O)c1ccccc1OCc1ccc(Cl)cc1)c1ccco1 (stereo not shown),-2.35
15,Cc1cc(OCCCN2CCN(Cc3ccccc3)CC2)ccc1[N+](=O)[O-].O=C(O)C(=O)O,-52.5
16,CC(=O)c1ccc2c(c1)OCO2,9.93
17,CCN(CC)Cc1c(C(=O)N/N=C/c2cccs2)nnn1-c1nonc1N,-6.62
18,CN(Cc1ccccc1Br)C(=O)CN1C(=O)NC2(CCCCCC2)C1=O,8.24
19,O=C1CC(c2ccc(Cl)cc2)c2c(O)cc(O)cc2O1 (stereo not shown),16.1
20,COc1ccc(C2SCC(=O)Nc3c2c(C)nn3C2CCOC(C)(C)C2)cc1OC (stereo not shown),5.5
21,COc1ccc(OC)c(NC(=O)c2cc3n(n2)C(C(F)(F)F)CC(c2ccc4c(c2)OCO4)N3)c1 (stereo not shown),5.75
22,NC(=O)c1ccc[n+](CC(=O)NCc2ccc(Cl)cc2)c1.[Cl-],9.65

# From article PMC4336329 (PLoS ONE, 2015)
